These results are taken from PubChem BioAssay AID1963576 (National Center for Advancing Translational Sciences (NCATS), 2024).

The structures appear in SMILES notation. The campaign covered roughly 46,000 compounds. About 60 (0.1%) were called active. Inconclusive results (about 3%) are left out. The call rests on the fitted dose curve; in most records, active means well fitted inhibition curve with a large enough effect; inconclusive means small, poorly fitted or top-dose-only effect; inactive means no such curve, though single readings can be large or run the other way. This is one part of the list.

This assay is described as follows: Primary qHTS assay for Inhibitors of ovarian cancer metastasis using an organotypic tumor microenvironment (TME) model. Further: nearly all actives have a fitted effect of over 65% in size.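 On activity change, negative = inhibition: plate controls were DMSO wells for no effect and tomatine positive control wells for full effect.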 The note with it: SKOV3ip1-GFP adhesion/invasion on 3D omental model, fluorescence; series mostly up to 45.8 µM; activity change, negative = inhibition: at the top concentration. The essentials: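 Adhesion/invasion was scored as fixed GFP-labeled SKOV3ip1 cell counts (488/509 nm), normalized to DMSO and tomatine controls. Cancer cells in serum-free medium, with four compound doses (0.36-46 umol/L), sat 2 hr at RT then 16 hr at 37 C on a 48 hr fibroblast/mesothelial/ECM culture.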
In general terms: In qHTS, concentration-response curves come from the screen itself.
For the molecule `CCOc1ccccc1NC(=O)CSC1=Nc2ccccc2C2=NC(CC(=O)NC3CCCCC3)C(=O)N12` (stereo not given), the “activity change, negative = inhibition” value was inactive: 8.73%.

As for `CCC(=O)Nc1nnc(S(=O)(=O)N(C)Cc2ccc(Cl)cc2)s1`, the “activity change, negative = inhibition” value was inactive: 9%.

In the case of `CCOC(=O)c1ccc(NC(=O)CN(c2ccc(C)cc2)S(=O)(=O)c2ccc(OC)cc2)cc1`, the molecule was classed as inactive.

For `CN(C)S(=O)(=O)c1ccc2c(c1)c(=O)c(C(=O)N1CCN(c3cccc(Cl)c3)CC1)cn2C`, the outcome was inactive.

Consider `O=S1(=O)c2ccccc2N(Cc2ccc(Cl)cc2F)c2ccccc21`, for which the “activity change, negative = inhibition” value is inactive: -1.18%.

As to `COc1ccc(OC)c(NC(=O)CSC2=Nc3ccccc3C3=NC(CCC(=O)NCc4ccco4)C(=O)N23)c1` (stereo not given), the “activity change, negative = inhibition” value is inactive: 3.96%.

In the case of `Cc1cc(NC(=O)c2cccnc2)cc(-c2nc3cc(Cl)ccc3o2)c1O`, the molecule was classed as inactive.

Take `CCC(Sc1nc2cc(OC)c(OC)cc2c(=O)n1Cc1ccc(Cl)cc1)C(=O)NCCOC` (stereo not given): the “activity change, negative = inhibition” value is inactive: -4.38%.

In the case of `CCC(CC)C(=O)Nc1c(C(=O)N2CCN(c3ccccc3F)CC2)oc2ccccc12`, the “activity change, negative = inhibition” value is inactive: -27.1%.

`CCOc1ccc(CN2C(=O)c3ccccc3Sc3ccc(C(=O)N4CCN(C)CC4)cc32)cc1`: the molecule was called inactive.

As for `CCOc1ccc(-c2nc3c(c(SCC(=O)N4CCCCC4)n2)Cc2cc(C)ccc2O3)cc1`, the “activity change, negative = inhibition” value was inactive: 2.95%.

Consider `COc1ccc(CCNC(=O)CN(c2ccc(C)cc2)S(=O)(=O)c2ccc(OC)cc2)cc1`, for which the “activity change, negative = inhibition” value is inactive: 23.3%.

On to `O=C(NC1CC(=O)N(c2ccccc2)C1)c1ccc(S(=O)(=O)N2CCOCC2)cc1` (stereo not given), for which the molecule was classed as inactive.

In the case of `Brc1ccc(-c2ccc(CNCCSc3nnnn3-c3ccccc3)o2)cc1`, the “activity change, negative = inhibition” value was inactive: -0.82%.

Consider `Cc1ccc(-c2nnc(SCCOc3ccccc3)o2)cc1`, for which the “activity change, negative = inhibition” value is inactive: -15.9%.

In the case of `CC1CCN(C(=O)CSc2c3c(nc4cc(Cl)ccc24)CCCC3)CC1`, the molecule was called inactive.

As to `COc1ccc(Br)c2c1-c1nc(NC(=O)c3cccc(C)c3)sc1C2`, the outcome was inactive.

As to `CCOc1ccc(-n2nc(CO)c(C(=O)NCc3ccc(Cl)cc3)n2)cc1`, the result was inactive.

Take `COc1ccccc1N1CCN(c2ccc3cc(S(=O)(=O)N4CCCCC4)ccc3n2)CC1`: the “activity change, negative = inhibition” value is inactive: -6.29%.

In the case of `Cc1cc(C)cc(Oc2c(C(F)(F)F)oc3c(CN4CCCC(C)C4)c(O)ccc3c2=O)c1` (stereo not given), the “activity change, negative = inhibition” value was inactive: -5.01%.

Take `CCOC(=O)CC(NC(=O)c1cc2cc(Cl)ccc2oc1=O)c1ccc(C)cc1` (stereo not given): the result was inactive.

`c1ccc(-c2cn(-c3ccccc3)c3ncnc(N4CCN(c5ccccc5)CC4)c23)cc1`: the “activity change, negative = inhibition” value was inactive: -15.4%.

Take `COc1ccc(OC)c(NC(=O)CSc2n[nH]c(-c3ccccc3Cl)n2)c1`: the “activity change, negative = inhibition” value is inactive: -2.22%.

For the molecule `CCC(=O)Nc1sc2c(c1C(=O)Nc1ccc(OC)cc1)CCC(C(C)(C)C)C2` (stereo not given), the “activity change, negative = inhibition” value is inactive: -9.16%.

For the molecule `CC(=O)c1ccc(NC(=O)CSc2cn(CC(=O)N3CCCCC3)c3ccccc23)cc1`, the “activity change, negative = inhibition” value is inactive: 11.9%.

As to `CCc1ccc(NC(=O)C2CCN(c3nnc(-n4c(C)ccc4C)s3)CC2)cc1`, the “activity change, negative = inhibition” value was inactive: -9.01%.

On to `COc1ccc(F)cc1S(=O)(=O)NCCc1csc(-c2ccc(Cl)cc2)n1`, for which the call was inactive.

In the case of `CCOc1ccc(-c2cn(-c3ccc(OC)cc3)c(SCC(=O)Nc3ccccc3Cl)n2)cc1`, the “activity change, negative = inhibition” value was inactive: 3.73%.

As for `Cc1ccc(C)c(-n2nnc(-c3nc(-c4ccc(Cl)cc4)no3)c2N)c1`, the molecule was called inactive.

In the case of `CCCC(=O)NCCc1nc2ccccc2n1Cc1c(F)cccc1Cl`, the “activity change, negative = inhibition” value was inactive: 8.31%.

Take `Cc1ccc(NC(=O)C2Cc3ccccc3N2C(=O)c2ccccc2)cc1Cl` (stereo not given): the “activity change, negative = inhibition” value was inactive: 7.52%.

On to `Cc1cc(C)c(S(=O)(=O)NCCc2cc3c(C)ccc(C)c3[nH]c2=O)c(C)c1`, for which the call was inactive.

`O=C(Nc1ccc(S(=O)(=O)N2CCC(c3nc4ccccc4s3)CC2)cc1)c1ccc(F)cc1`: the result was inactive.

Take `Cc1oc(-c2ccccc2F)nc1CS(=O)(=O)CC(=O)N1CCN(c2cccc(C(F)(F)F)c2)CC1`: the “activity change, negative = inhibition” value is inactive: -2.15%.

For the molecule `N#Cc1ccc(C(=O)Nc2ccc(Cl)c(-c3nc4cc(Cl)ccc4o3)c2)c(F)c1`, the “activity change, negative = inhibition” value is inactive: -16.4%.

For the molecule `NNC(=O)c1ccncc1`, the “activity change, negative = inhibition” value is inactive: 10.5%.

Turning to `COc1ccc(OC)c(NC(=O)CSC2=Nc3ccccc3C3=NC(CC(=O)NCc4ccco4)C(=O)N23)c1` (stereo not given), the “activity change, negative = inhibition” value is inactive: -1.57%.

`O=C(NCc1ccc2c(c1)CCN2C(=O)c1ccncc1)c1cccc(Cl)c1`: the outcome was inactive.

Consider `COc1ccc(NC(=O)c2sc3nc(C)c(C(=O)Nc4ccc(C)cc4C)c(-c4ccc(Cl)cc4)c3c2N)cc1`, for which the molecule was called inactive.

Turning to `CCOc1ccc(NC(=O)CN(C)S(=O)(=O)c2ccc3c(c2)c(=O)n(C)c(=O)n3C)cc1`, the outcome was inactive.

With `Cc1ccc(C(=O)NCC(c2cccs2)S(=O)(=O)c2cccs2)cc1C` (stereo not given), the “activity change, negative = inhibition” value was inactive: 3.03%.

As to `COc1cc(OC)cc(C(=O)Nc2cc(-c3nc4ccccc4s3)ccc2OC)c1`, the “activity change, negative = inhibition” value was inactive: -17.7%.

For the molecule `COc1ccc(-c2nc3sc(CCNC(=O)C(=O)Nc4cc(C)cc(C)c4)c(C)n3n2)cc1`, the call was inactive.

Turning to `COc1ccc(N2CCN(C(=O)Cn3ncc4c3-c3cc(C)ccc3OC4)CC2)cc1`, the molecule was called inactive.

Turning to `Cc1ccc(NC(=O)c2cccc(NC(=O)N3CCSc4ncccc43)c2)cc1Cl`, the result was inactive.

Consider `CCN(C(=O)c1nn(-c2ccc(OC)c(Cl)c2)c(=O)c2c1c1ccccc1n2C)c1cc(OC)ccc1OC`, for which the “activity change, negative = inhibition” value is inactive: -0.504%.

`COc1cccc(-c2cc(C(F)(F)F)nc(-n3nc(C)c(Br)c3C)n2)c1`: the “activity change, negative = inhibition” value was inactive: 8.71%.

`Nc1nc(N)c(S(=O)(=O)c2ccccc2)c(Nc2ccc(Br)cc2)n1`: the “activity change, negative = inhibition” value was inactive: -1.02%.

As to `O=C(NCC(c1ccc(Cl)cc1)N1CCCCC1)c1ccc(F)cc1` (stereo not given), the “activity change, negative = inhibition” value was inactive: 3.55%.

With `COc1ccc(C(=O)NCC(c2cccnc2)N2CCN(c3ccc(F)cc3)CC2)cc1` (stereo not given), the “activity change, negative = inhibition” value is inactive: 1.33%.

Regarding `CCOc1cccc2cc(-c3nc4sc(C(=O)Nc5ccc(C)cc5)c(C)c4c(=O)[nH]3)c(=O)oc12`, the “activity change, negative = inhibition” value was inactive: 30.6%.

For the molecule `Cc1cccc(NC(=O)C(=O)c2cc(C)n(-c3ccccc3)c2C)c1C`, the “activity change, negative = inhibition” value is inactive: -19.6%.

`O=C(CSc1ccc2nc(-c3ccccc3)cn2n1)Nc1ccccc1C(F)(F)F`: the “activity change, negative = inhibition” value is inactive: 16.1%.

In the case of `Cc1cccc(NC(=O)Cn2nc(-c3ccc(Cl)cc3)c3ccccc3c2=O)c1`, the “activity change, negative = inhibition” value is inactive: -3.71%.

For the molecule `COc1ccccc1CNC(=O)c1cccn1-c1nnc(N2CCCC2)s1`, the “activity change, negative = inhibition” value is inactive: -27.3%.

Turning to `Cc1ccc(-n2c(SCc3ccccc3F)nc3[nH]ncc3c2=O)cc1C`, the “activity change, negative = inhibition” value is inactive: 4.43%.

With `Cc1cccc(NC(=O)CSc2nc3c(c(=O)[nH]2)CN(Cc2ccc4c(c2)OCO4)CC3)c1C`, the “activity change, negative = inhibition” value is inactive: -2.04%.

Consider `O=C(NCCc1ccc(Cl)cc1)c1cccn1-c1nnc(N2CCCCC2)s1`, for which the molecule was called inactive.

For `O=C(Cn1c(=O)n(Cc2cccs2)c(=O)c2cccnc21)Nc1ccccc1F`, the “activity change, negative = inhibition” value is inactive: 5.11%.

Turning to `Cc1cc(O)c(C(c2cccc(F)c2)N2CCC(C)CC2)c(=O)n1Cc1ccco1` (stereo not given), the “activity change, negative = inhibition” value was inactive: -6.7%.
